Results taken from the supplement of paper PMC4604168 (melanoma cell lines).
The other results are listed elsewhere or left out. Many values rest on one well or one pass, so single values are uncertain.

How the values were obtained:
Experiment in all cases: cell count relative to DMSO control; melanoma cells; higher = more viable cells
Settings in all cases: library dose: standard library concentration; 72 h; first compound 2 µM
G361 = test system: G361
IPC-298 = test system: IPC-298
IST-MEL1 = test system: IST-MEL1
LB2518-MEL = test system: LB2518-MEL
LOXIMVI = test system: LOXIMVI
MEL-HO = test system: MEL-HO
MZ2-MEL = test system: MZ2-MEL
MeWo = test system: MeWo
RPMI7951 = test system: RPMI7951
RVH-421 = test system: RVH-421
SkMel28 = test system: SkMel28
SkMel2 = test system: SkMel2
SkMel30 = test system: SkMel30
SkMel5 = test system: SkMel5
UACC257 = test system: UACC257
UACC62 = test system: UACC62
WM115 = test system: WM115
WM1716 = test system: WM1716
WM3526 = test system: WM3526
WM1745 = test system: WM1745
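Further: cells treated in 1,536-well plates, then fixed and DAPI-stained, with nuclei counted from automated high-throughput microscope images.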

Compound	cell count (G361) [%]	cell count (IPC-298) [%]	cell count (IST-MEL1) [%]	cell count (LB2518-MEL) [%]	cell count (LOXIMVI) [%]	cell count (MEL-HO) [%]	cell count (MZ2-MEL) [%]	cell count (MeWo) [%]	cell count (RPMI7951) [%]	cell count (RVH-421) [%]	cell count (SkMel28) [%]	cell count (SkMel2) [%]	cell count (SkMel30) [%]	cell count (SkMel5) [%]	cell count (UACC257) [%]	cell count (UACC62) [%]	cell count (WM115) [%]	cell count (WM1716) [%]	cell count (WM3526) [%]	cell count (WM1745) [%]
CCCCCCCCCCCCCCCCCCOP(=O)([O-])OC1CC[N+](C)(C)CC1 [Perifosine] + N#Cc1c(O)c2c(-c3ccc(-c4ccccc4O)cc3)csc2[nH]c1=O [A769662] (partner dose 10 µM)	109	97.2	79.6	88.9	111	90.9	104	86.2	47.6	90.9	93.9	89.9	96.7	106	111	77.5	108	89.5	77.9	–
Cn1sc(=O)n(Cc2ccccc2)c1=O + CCCCCCCCCCCC1=C(O)C(=O)C=C(O)C1=O [Embelin] (partner dose 6 µM)	83.8	59.3	63.8	79.2	100	83.1	81.9	115	108	59.5	90.4	80.5	84.2	87.6	84.5	102	73.5	82.9	79.9	–
C[C@@H](N)c1ccc(C(=O)Nc2ccnc3[nH]ccc23)cc1 + COc1ccc(COc2ccc(Cc3cnc(N)nc3N)cc2OC)cc1 [GW2580] (partner dose 5 µM)	68.8	87.2	79.2	116	96.5	73.7	46.5	58.3	61.1	60.8	78.5	85	99.3	39.6	60.2	71.6	92.5	30.3	79.7	–
CCCCCCCCCCCCCCCCCCOP(=O)([O-])OC1CC[N+](C)(C)CC1 [Perifosine] + Oc1cc(-c2nc(-c3ccccc3)[nH]c2-c2ccncc2)ccc1Cl [L779450] (partner dose 1 µM)	59.2	88.1	88.2	96.2	92.8	80.3	96.6	85.7	37	67.5	43.7	28.2	56.9	61.3	95.1	55.7	42.3	68	57.8	–
C[C@@H](N)c1ccc(C(=O)Nc2ccnc3[nH]ccc23)cc1 + COc1ccc(-c2ccc3c(N4CCOCC4)nc(N4C[C@@H](C)O[C@@H](C)C4)nc3n2)cc1CO [KU0063794] (partner dose 0.1 µM)	88.5	88.7	98.9	97.2	86.1	66.4	54.9	46.1	54.6	49.4	77.2	107	87.1	66.1	54.5	63.1	103	57.1	82.3	–
C[C@@H](N)c1ccc(C(=O)Nc2ccnc3[nH]ccc23)cc1 + COc1cc(N2CCC(N3CCN(C)CC3)CC2)ccc1Nc1ncc(Cl)c(Nc2ccccc2S(=O)(=O)C(C)C)n1 [NVP-TAE684] (partner dose 0.4 µM)	79.6	100	93.9	110	96.5	88.3	68.2	41.9	30.5	59.9	73.2	79.7	98	42.3	64	74.7	86.1	56.6	76.1	–
Cn1sc(=O)n(Cc2ccccc2)c1=O + CCCCCCCCc1ccc(CCC(N)(CO)CO)cc1 [fingolimod] (partner dose 10 µM)	2.12	28.2	15.8	0.419	12.9	14	1.73	14.3	1.86	5.4	1.25	0.392	13.5	48.5	71	13.3	8.36	47.1	50.4	1.38
Cn1sc(=O)n(Cc2ccccc2)c1=O + N#Cc1c(O)c2c(-c3ccc(-c4ccccc4O)cc3)csc2[nH]c1=O [A769662] (partner dose 10 µM)	86.7	87.9	94.2	96.3	69.8	86.9	72.8	86	82.5	240	88.6	120	98.4	82.2	101	90.7	79	105	88.4	–
C[C@@H](N)c1ccc(C(=O)Nc2ccnc3[nH]ccc23)cc1 + O=C1NC(=O)/C(=C/c2ccc(-c3ccc(F)cc3O)o2)S1 [AS252424] (partner dose 5 µM)	79	112	89.9	92.6	77.3	62.3	63.9	59.7	52.5	46.3	84	85.7	65.1	49.1	58.7	81.1	98.4	23.2	68.3	–
CCCCCCCCCCCCCCCCCCOP(=O)([O-])OC1CC[N+](C)(C)CC1 [Perifosine] + Cc1cc([N+](=O)[O-])ccc1NS(=O)(=O)c1cc(Cl)ccc1Cl [FH535] (partner dose 5 µM)	54.9	51.6	65.1	89.2	67.3	51.4	69.5	73	27.8	71.6	56.8	79.8	87	65.2	70.7	84.5	76.9	77.2	86.2	–
C[C@@H](N)c1ccc(C(=O)Nc2ccnc3[nH]ccc23)cc1 + O=C(O)C(=O)Nc1sc2c(c1C(=O)O)CCNC2 [TCS401] (partner dose 8.33333 µM)	106	90.2	109	130	83.6	87.6	60	88.4	75.1	90.2	113	104	83.9	53.7	41.2	93.3	100	83.3	93.1	–
C[C@@H](N)c1ccc(C(=O)Nc2ccnc3[nH]ccc23)cc1 + CCc1ccc(CCOc2ccc(CC3SC(=O)NC3=O)cc2)nc1 [pioglitazone] (partner dose 10 µM)	85.6	89	91.2	99.5	85.4	76.1	61.1	69.7	49.4	59.6	66.3	94.5	91.5	59.3	79.9	68.2	92	63.9	91.2	–
CCCCCCCCCCCCCCCCCCOP(=O)([O-])OC1CC[N+](C)(C)CC1 [Perifosine] + CCN(CC)CCCCNc1ncc2cc(-c3cc(OC)cc(OC)c3)c(NC(=O)NC(C)(C)C)nc2n1 [PD173074] (partner dose 0.5 µM)	98.7	115	108	112	91.5	102	108	89.7	45.8	102	99.3	98.9	121	90.2	104	98.5	115	94.5	105	–
C[C@@H](N)c1ccc(C(=O)Nc2ccnc3[nH]ccc23)cc1 + Cn1cc(/C=C2\C(=O)Nc3cccnc32)c2ccccc21 [GW441756] (partner dose 2 µM)	77.2	77.7	80.8	111	91.7	70.9	43.3	63	64.4	53.2	73.4	93.9	71	42.4	38.2	73.7	101	27.8	76.9	–
C[C@@H](N)c1ccc(C(=O)Nc2ccnc3[nH]ccc23)cc1 + CCCCCCCCCCCC1=C(O)C(=O)C=C(O)C1=O [Embelin] (partner dose 6 µM)	73.8	58.3	52.3	96.8	63.2	57.5	42.2	61.2	60.4	47.7	80.8	83.3	102	68.4	41.2	80.3	93.3	41.7	73.6	–
Cn1sc(=O)n(Cc2ccccc2)c1=O + COc1ccc(COc2ccc(Cc3cnc(N)nc3N)cc2OC)cc1 [GW2580] (partner dose 5 µM)	114	100	96.8	141	98.6	104	104	95.3	88.8	104	116	99.5	102	86.9	73.8	73.7	125	96.8	86.8	–
CCCCCCCCCCCCCCCCCCOP(=O)([O-])OC1CC[N+](C)(C)CC1 [Perifosine] + COc1ccc(COc2ccc(Cc3cnc(N)nc3N)cc2OC)cc1 [GW2580] (partner dose 5 µM)	81.1	97.6	97.8	117	85.6	93.6	97.1	107	43.9	91.5	62.4	100	93.6	95.7	101	90.5	101	103	89.3	–
CCCCCCCCCCCCCCCCCCOP(=O)([O-])OC1CC[N+](C)(C)CC1 [Perifosine] + c1cc(-c2cnn3cc(-c4ccc(OCCN5CCCCC5)cc4)cnc23)ccn1 [Dorsomorphin] (partner dose 2 µM)	71.8	83.6	87.3	68.7	83.2	82.1	85.5	64	37.4	81.7	56.8	78.6	102	104	74.3	100	71.4	73	86.5	–
C[C@@H](N)c1ccc(C(=O)Nc2ccnc3[nH]ccc23)cc1 + Oc1nc(-c2ccc(C(F)(F)F)cc2)nc2c1CSCC2 [XAV939] (partner dose 10 µM)	87.8	78.7	92.9	96	83.2	54.1	59.4	65.2	48.5	41.3	79.4	86.2	85.7	65.9	54.5	82.3	74.8	33.9	95	–
C[C@@H](N)c1ccc(C(=O)Nc2ccnc3[nH]ccc23)cc1 + O=C(Nc1ccccc1)c1cc([N+](=O)[O-])ccc1Cl [GW9662] (partner dose 10 µM)	76.6	116	118	126	77.8	88.8	63.7	63.3	71.8	78.9	95.4	134	94.9	96	70.4	75.6	89.7	73.8	123	–
